Source: a collection of fitness landscapes (doi:10.1038/s41467-024-54723-y)
Whole data set: some 18,000 sequences, median “TetR repression strength (sort-seq, GFP reporter)” near 0.23, cut for the highest 2% near 0.68. Some of the results follow.

The sequences below were run against TetR (class B, Tn10) (UniProt P04483) (assay: TetR repression strength (sort-seq, GFP reporter) (relative to tetO2 = 1); higher = stronger repression). Details: E. coli.
In short: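 Repression strength was calculated by subtracting the read-weighted mean bin from the top bin index plus one and dividing by the unaltered operator's value. The plasmid library was low-copy in E. coli SIG10-MAX, with eight randomized operator positions between a constitutive promoter and sfGFP and constitutive TetR. Cultures grew 5 h at 37 °C in LB containing 50 µg/mL chloramphenicol before 10^6 cells were sorted by FACS into 13 fluorescence bins, each sequenced on Illumina. Three independent transformations were averaged for members having ≥30 reads in all replicates and a CV ≤0.5.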

UniProt P04483, sequence (P04483 whole entry): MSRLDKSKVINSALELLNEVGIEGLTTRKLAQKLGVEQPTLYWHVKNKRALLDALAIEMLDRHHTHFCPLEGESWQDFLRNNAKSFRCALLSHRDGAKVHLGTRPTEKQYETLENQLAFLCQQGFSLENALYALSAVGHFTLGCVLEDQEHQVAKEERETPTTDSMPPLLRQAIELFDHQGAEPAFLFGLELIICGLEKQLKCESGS

| Sequence | TetR repression strength |
| --- | --- |
| TCCCGAACAGTAGTGGAGA | 0.137 |
| TCCCGGTTAGTCGTTGAGA | 0.225 |
| TCCCAATCAGTGATAGAGA | 0.785 |
| TCCCTCGAAGTTACCGAGA | 0.221 |
| TCCCGGGAAGTAGGGGAGA | 0.163 |
| TCCCGGATAGTGTCCGAGA | 0.43 |
| TCCCCATTAGTGAGTGAGA | 0.324 |
| TCCCGATCAGTATGCGAGA | 0.135 |
| TCCCGCTCAGTGGGGGAGA | 0.346 |
| TCCCGGGGAGTACTAGAGA | 0.283 |
| TCCCACGTAGTGCAAGAGA | 0.62 |
| TCCCCGGGAGTACAAGAGA | 0.356 |
| TCCCAAGGAGTCTCAGAGA | 0.536 |
| TCCCTGCGAGTAGTCGAGA | 0.542 |
| TCCCCGTAAGTGGTAGAGA | 0.118 |
| TCCCGGGCAGTTGTAGAGA | 0.17 |
| TCCCCCGTAGTTACAGAGA | 0.171 |
| TCCCCGTCAGTTGGGGAGA | 0.19 |
| TCCCGGGAAGTGACTGAGA | 0.263 |
| TCCCGCCAAGTGGCTGAGA | 0.183 |
| TCCCTGCCAGTTGTTGAGA | 0.135 |
| TCCCCCACAGTCTGAGAGA | 0.109 |
| TCCCTGGTAGTACGGGAGA | 0.405 |
| TCCCATCGAGTACTGGAGA | 1.02 |
| TCCCTAGTAGTACTGGAGA | 0.176 |
| TCCCGGCAAGTGGGTGAGA | 0.0995 |

| Sequence | TetR repression strength |
| --- | --- |
| TCCCGCCAAGTTTGGGAGA | 0.271 |
| TCCCTGTAAGTGAGAGAGA | 0.405 |
| TCCCGGTGAGTGAATGAGA | 0.355 |
| TCCCCACGAGTAGGGGAGA | 0.268 |
| TCCCCCACAGTTGGTGAGA | 0.207 |
| TCCCGTCTAGTATCAGAGA | 0.38 |
| TCCCTTCTAGTCTTCGAGA | 0.401 |
| TCCCGGCCAGTGGCCGAGA | 0.28 |
| TCCCCCCCAGTCTAGGAGA | 0.8 |
| TCCCCATGAGTCGTTGAGA | 0.337 |
| TCCCGCGCAGTTGGAGAGA | 0.399 |
| TCCCGCATAGTGGAGGAGA | 0.157 |
| TCCCGATTAGTGGCGGAGA | 0.446 |
| TCCCAAACAGTGTTCGAGA | 0.305 |
| TCCCAGGCAGTCACGGAGA | 0.313 |
| TCCCTGACAGTACTCGAGA | 0.134 |
| TCCCGCGAAGTCTACGAGA | 0.303 |
| TCCCGCAAAGTGTGCGAGA | 0.00592 |
| TCCCGATCAGTTCGTGAGA | 0.0283 |
| TCCCACCAAGTGGCAGAGA | 0.538 |
| TCCCCTAGAGTCGGCGAGA | 0.128 |
| TCCCTTCTAGTCATTGAGA | 0.394 |
| TCCCGAGGAGTGCGGGAGA | 0.453 |
| TCCCGCCAAGTGCATGAGA | 0.138 |
| TCCCGACGAGTCCTCGAGA | 0.297 |
| TCCCCTGGAGTCCGAGAGA | 0 |

| Sequence | TetR repression strength |
| --- | --- |
| TCCCCGCTAGTGCACGAGA | 0.403 |
| TCCCCTTGAGTAATGGAGA | 0.0959 |
| TCCCGGGCAGTCACCGAGA | 0.216 |
| TCCCATGGAGTACAAGAGA | 0.262 |
| TCCCGTGGAGTTGTCGAGA | 0.388 |
| TCCCGCCGAGTGACCGAGA | 0.153 |
| TCCCACGGAGTTAGCGAGA | 0.518 |
| TCCCTGTTAGTGAATGAGA | 0.436 |
| TCCCCCGAAGTCAAGGAGA | 0.21 |
| TCCCGTGGAGTCGTTGAGA | 0.197 |
| TCCCTTTTAGTCATGGAGA | 0.109 |
| TCCCGTCAAGTGAGGGAGA | 0.224 |
| TCCCCTACAGTCGCAGAGA | 0.294 |
| TCCCTACCAGTGCAAGAGA | 0.199 |
| TCCCTCGTAGTTATGGAGA | 0.291 |
| TCCCTGTGAGTTAGAGAGA | 0.461 |
| TCCCGTACAGTTAACGAGA | 0.226 |
| TCCCGTAGAGTAAAAGAGA | 0.298 |
| TCCCTGATAGTTCGAGAGA | 0.244 |
| TCCCGCCAAGTGTGGGAGA | 0.091 |
| TCCCAGGTAGTAGATGAGA | 0.192 |
| TCCCATGTAGTGCATGAGA | 0.207 |
| TCCCGTCGAGTCGCAGAGA | 0.442 |
| TCCCTCTGAGTGGATGAGA | 0.217 |
| TCCCTTCGAGTTTATGAGA | 0.513 |
| TCCCCGACAGTCGAAGAGA | 0.188 |

| Sequence | TetR repression strength |
| --- | --- |
| TCCCGGTCAGTAGTGGAGA | 0.294 |
| TCCCGACAAGTTAGTGAGA | 0.154 |
| TCCCCGCCAGTGACCGAGA | 0.207 |
| TCCCGTACAGTGGAGGAGA | 0.194 |
| TCCCGCGAAGTTGGTGAGA | 0.202 |
| TCCCGGCTAGTTGATGAGA | 0.374 |
| TCCCCTAGAGTTTCGGAGA | 0.0921 |
| TCCCAGCTAGTCGTCGAGA | 0.418 |
| TCCCACGGAGTTTCTGAGA | 0.231 |
| TCCCGGGAAGTATGGGAGA | 0.136 |
| TCCCCTTCAGTTATTGAGA | 0.396 |
| TCCCCTCTAGTAATGGAGA | 0.574 |
| TCCCTCCAAGTGGTTGAGA | 0.177 |
| TCCCGTCAAGTGTACGAGA | 0.0428 |
| TCCCTGTGAGTGACTGAGA | 0.0801 |
| TCCCAGTAAGTTGACGAGA | 0.0146 |
| TCCCGCGAAGTAGCGGAGA | 0.206 |
| TCCCCCGTAGTACACGAGA | 0.231 |
| TCCCAGGCAGTGTGTGAGA | 0.207 |
| TCCCGGGGAGTCTCCGAGA | 0.24 |
| TCCCGGCCAGTAGCGGAGA | 0.0259 |
| TCCCGGGGAGTAATGGAGA | 0.25 |
| TCCCCGCAAGTGCTCGAGA | 0.373 |
| TCCCTACAAGTATGCGAGA | 0.286 |
| TCCCAGATAGTCCTCGAGA | 0.235 |
| TCCCAACAAGTTAGTGAGA | 0.504 |

| Sequence | TetR repression strength |
| --- | --- |
| TCCCCAAAAGTGGATGAGA | 0.232 |
| TCCCGCCAAGTCTTTGAGA | 0.514 |
| TCCCAGGTAGTATCGGAGA | 0.023 |
| TCCCAGTTAGTGGTTGAGA | 0.12 |
| TCCCGTCTAGTCAGGGAGA | 0.266 |
| TCCCCTGCAGTCAGAGAGA | 0.15 |
| TCCCTGGTAGTGTGCGAGA | 0.0311 |
| TCCCACCTAGTATCCGAGA | 0.311 |
| TCCCAACTAGTGGTGGAGA | 0.352 |
| TCCCGGGGAGTCTATGAGA | 0.521 |
| TCCCGAATAGTCAATGAGA | 0.268 |
| TCCCAGAAAGTTCGCGAGA | 0.211 |
| TCCCACTAAGTCTTTGAGA | 0.143 |
| TCCCAATCAGTATGTGAGA | 0.436 |
| TCCCATGCAGTCGAGGAGA | 0.258 |
| TCCCGAGTAGTAACGGAGA | 0.461 |
| TCCCGGTTAGTAGAGGAGA | 0.224 |
| TCCCGATAAGTATTTGAGA | 0.207 |
| TCCCAGGCAGTAGGCGAGA | 0.205 |
| TCCCGCCCAGTAAAAGAGA | 0.25 |
| TCCCCACAAGTTCGGGAGA | 0.0657 |
| TCCCCGCAAGTAGCTGAGA | 0.126 |
| TCCCAGCCAGTCTAAGAGA | 0.258 |
| TCCCAATTAGTTTACGAGA | 0.159 |
| TCCCGACTAGTCGAGGAGA | 0.233 |
| TCCCAGAGAGTTGAGGAGA | 0.191 |

| Sequence | TetR repression strength |
| --- | --- |
| TCCCGCATAGTCTCTGAGA | 0.18 |
| TCCCGTCTAGTGATTGAGA | 0.279 |
| TCCCTTTAAGTACGGGAGA | 0.177 |
| TCCCACCTAGTGGAAGAGA | 0.54 |
| TCCCAGAAAGTGGTTGAGA | 0.329 |
| TCCCGCTTAGTCGTCGAGA | 0.185 |
| TCCCTGCAAGTCAAAGAGA | 0.0554 |
| TCCCCTTAAGTTTCGGAGA | 0.506 |
| TCCCACGCAGTGGTCGAGA | 0.246 |
| TCCCATTTAGTAATGGAGA | 0.103 |
| TCCCACGGAGTTAAGGAGA | 0.198 |
| TCCCGAGGAGTTGGGGAGA | 0.152 |
| TCCCCGAAAGTTAGTGAGA | 0.225 |
| TCCCGTTGAGTAACAGAGA | 0.299 |
| TCCCGTGAAGTAGCAGAGA | 0.578 |
| TCCCGCATAGTTCAAGAGA | 0.626 |
| TCCCCGGCAGTTGGCGAGA | 0.437 |
| TCCCAAATAGTTGAAGAGA | 0.277 |
| TCCCTCTAAGTTGTGGAGA | 0.376 |
| TCCCCACAAGTGCCAGAGA | 0.495 |
| TCCCAAGTAGTCGTCGAGA | 0.157 |
| TCCCCTAAAGTTAGGGAGA | 0.199 |
| TCCCTATAAGTGGTTGAGA | 0.605 |
| TCCCCTGGAGTTGGCGAGA | 0.304 |
| TCCCACTCAGTGCCGGAGA | 0.203 |
| TCCCGACGAGTCGTGGAGA | 0.29 |

| Sequence | TetR repression strength |
| --- | --- |
| TCCCTTCCAGTATCAGAGA | 0.0836 |
| TCCCAATCAGTGTTCGAGA | 0.424 |
| TCCCTGCAAGTTTCGGAGA | 0.0543 |
| TCCCAGTTAGTGTTGGAGA | 0.259 |
| TCCCAAGGAGTACAGGAGA | 0.213 |
| TCCCCGGTAGTATGGGAGA | 0.0909 |
| TCCCTTGTAGTGTGAGAGA | 0.0522 |
| TCCCATAGAGTCACGGAGA | 0.119 |
| TCCCTGGAAGTGAACGAGA | 0.39 |
| TCCCCGAAAGTGTATGAGA | 0.289 |
| TCCCGGGGAGTAGTAGAGA | 0.358 |
| TCCCGTTAAGTCGGGGAGA | 0.361 |
| TCCCCATCAGTAACTGAGA | 0.122 |
| TCCCGTTGAGTATTTGAGA | 0.329 |
| TCCCGTTTAGTTAGAGAGA | 0.227 |
| TCCCGTGGAGTGATGGAGA | 0.157 |
| TCCCCGTGAGTTGGGGAGA | 0.144 |
| TCCCAACTAGTACTTGAGA | 0.416 |
| TCCCAGTAAGTAGCAGAGA | 0.334 |
| TCCCGGCGAGTAGTTGAGA | 0.141 |
| TCCCGGAGAGTCCTAGAGA | 0.297 |
| TCCCTGCAAGTGGGTGAGA | 0.167 |
| TCCCAAGTAGTTATTGAGA | 0.267 |
| TCCCCTGAAGTTTGTGAGA | 0.135 |
| TCCCTTCGAGTTGGCGAGA | 0 |
| TCCCGGGTAGTGGAGGAGA | 0.194 |

| Sequence | TetR repression strength |
| --- | --- |
| TCCCCTAGAGTTCCGGAGA | 0.164 |
| TCCCGTAGAGTGGCTGAGA | 0.256 |
| TCCCTTCAAGTCGAAGAGA | 0.193 |
| TCCCATCAAGTTAGAGAGA | 0.246 |
| TCCCGTTAAGTAGCAGAGA | 0.18 |
| TCCCATGGAGTGACGGAGA | 0.128 |
| TCCCCGGGAGTGGATGAGA | 0.195 |
| TCCCGTCTAGTTGGCGAGA | 0.247 |
| TCCCTAGAAGTTGTCGAGA | 0.025 |
| TCCCGAACAGTTGTTGAGA | 0.187 |
| TCCCCTCGAGTGGCAGAGA | 0.147 |
| TCCCGACGAGTCGACGAGA | 0.178 |
| TCCCGAGTAGTAGCTGAGA | 0.222 |
| TCCCCCAAAGTCCAAGAGA | 0.624 |
| TCCCAGCGAGTGAGGGAGA | 0.388 |
| TCCCGGCCAGTAAGTGAGA | 0.0781 |
| TCCCGGTCAGTGCTTGAGA | 0.35 |
| TCCCCCTCAGTGGGCGAGA | 0.168 |
| TCCCAGGGAGTAAGGGAGA | 0.264 |
| TCCCAAGCAGTGTCTGAGA | 0.311 |
| TCCCCTAGAGTGATTGAGA | 0.186 |
| TCCCTGCAAGTGCATGAGA | 0.253 |
